About 14,000 (4.5%) of roughly 310,000 compounds showed an effect of 50% or more. Effects have a minus sign here. This is one part of the list.
biological target: human ether-à-go-go-related gene (hERG) potassium channel (human, UniProt Q12809); experiment: primary screen, population patch clamp on CHO cells stably expressing hERG
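Further: peak tail current of the secondary pulse compared with the same well before compound.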

Sequence of human ether-à-go-go-related gene (hERG) potassium channel (Q12809 whole entry, looked up): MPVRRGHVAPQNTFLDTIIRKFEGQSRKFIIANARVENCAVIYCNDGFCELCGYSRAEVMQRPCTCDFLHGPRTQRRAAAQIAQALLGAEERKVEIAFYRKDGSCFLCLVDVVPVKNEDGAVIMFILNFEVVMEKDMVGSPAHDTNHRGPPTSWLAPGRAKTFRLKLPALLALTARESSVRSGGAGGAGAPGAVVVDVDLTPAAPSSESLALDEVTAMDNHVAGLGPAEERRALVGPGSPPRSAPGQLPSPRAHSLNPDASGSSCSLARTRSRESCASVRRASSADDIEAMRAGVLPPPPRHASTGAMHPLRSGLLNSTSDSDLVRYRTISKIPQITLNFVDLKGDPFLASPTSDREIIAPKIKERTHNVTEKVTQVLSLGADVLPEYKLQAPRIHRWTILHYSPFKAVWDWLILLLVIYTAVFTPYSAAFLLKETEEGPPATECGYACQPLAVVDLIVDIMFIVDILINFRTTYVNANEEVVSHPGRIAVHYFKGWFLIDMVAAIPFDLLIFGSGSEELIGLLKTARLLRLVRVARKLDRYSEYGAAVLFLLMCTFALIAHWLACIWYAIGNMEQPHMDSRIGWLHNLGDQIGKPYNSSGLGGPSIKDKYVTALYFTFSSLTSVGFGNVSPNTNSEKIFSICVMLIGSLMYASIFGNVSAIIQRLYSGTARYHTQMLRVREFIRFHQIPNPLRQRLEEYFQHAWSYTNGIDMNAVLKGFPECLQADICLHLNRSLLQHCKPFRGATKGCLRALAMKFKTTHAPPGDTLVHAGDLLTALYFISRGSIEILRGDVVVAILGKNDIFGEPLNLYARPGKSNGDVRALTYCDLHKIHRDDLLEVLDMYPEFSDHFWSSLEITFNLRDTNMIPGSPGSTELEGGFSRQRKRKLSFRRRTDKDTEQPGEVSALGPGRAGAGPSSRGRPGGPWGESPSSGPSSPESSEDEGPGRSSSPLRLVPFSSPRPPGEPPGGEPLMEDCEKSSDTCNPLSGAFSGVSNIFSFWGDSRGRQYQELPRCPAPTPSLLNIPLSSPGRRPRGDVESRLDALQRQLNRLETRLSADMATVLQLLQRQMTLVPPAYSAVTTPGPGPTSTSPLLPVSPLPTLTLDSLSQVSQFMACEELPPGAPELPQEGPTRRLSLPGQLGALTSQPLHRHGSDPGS

Compound	hERG current change (%, negative = inhibition) at 10uM
CCOc1cc(NC(=S)Nc2ccc(Cl)cc2)c(OCC)cc1NC(C)=O	2.28%
COc1ccccc1-c1nn(-c2ccccc2)cc1C(=O)N1CCc2ccccc2C1	-4.47%
Nc1ccc2c(c1)C(=O)N(c1cccc3ccccc13)C2=O	-8.7%
CC(/C=N/NC(=O)c1cc(-c2ccccc2)nc2ccccc12)=C\c1ccco1	4.1%
N#Cc1ccc(COC(=O)Cn2nnc(-c3ccccc3)n2)cc1	0.45%
O=C(CN1CCN(C(=O)c2ccccc2)CC1)Nc1ccc(Br)cn1	-74.4%
CC(O)[C@@]1(O)CC[C@H]2[C@@H]3CC[C@H]4C[C@@H](O)CC[C@]4(C)C3=CC[C@@]21C (stereo partly drawn)	-15.1%
CCc1nnc(NC(=O)[C@@H](NC(=O)c2ccc(OC)cc2)C(C)C)s1	18.3%
Cc1cccc(C)c1NC(=O)c1cc(-c2ccccn2)nc2ccccc12	1%
O=C(NNC(=O)c1ccc(F)c(S(=O)(=O)N2CCOCC2)c1)c1ccc(Br)cc1	-31.2%
CC1CCN(CC(O)COCCC23CC4CC(CC(C4)C2)C3)CC1.Cl (stereo not drawn)	-51.5%
CC(=O)Nc1ccc(NC2CCCCC2NS(=O)(=O)c2ccc(Cl)cc2)cc1 (stereo not drawn)	10.9%
COc1ccc2cc(CCNC(=O)C3CCCC3)c(=O)[nH]c2c1	1.96%
COC(=O)/C(=N/Nc1cccc(C)c1)N1CCCc2ccccc21	5.91%
COC/C=C/C1=CC(=O)C[C@H](c2ccc3c(c2)OCO3)C1	-8.31%
CSc1nc(-c2ccc(Cl)cc2)nn1C(=O)c1ccccc1	-0.831%
O=C(CSc1nnc(-c2ccc(OC(F)F)cc2)o1)N1CCOCC1	-57%
O=C(Oc1ccc2ccccc2c1)c1ccco1	5.27%
Cc1nc2ccc(C(=O)N3CCCC(CO)(Cc4ccc(F)cc4F)C3)cc2nc1C (stereo not drawn)	-6.98%
CCOC(=O)c1nn(-c2ccccc2)c(C#N)c1N	-4.91%
O=C(CCC1COc2ccccc2O1)Nc1ccc(Cl)cn1 (stereo not drawn)	-15%
O=C(CC1SC(=NCC2CCCO2)NC1=O)Nc1cc([N+](=O)[O-])ccc1Cl (stereo not drawn)	0.256%
O=C(c1ccc(S(=O)(=O)NCC2CCCO2)cc1)N1CCN(c2ccccc2)CC1 (stereo not drawn)	-11.3%

Compound	hERG current change (%, negative = inhibition) at 10uM
COCCN1Cc2cccc(C(=O)Nc3cc(C)cc(C)c3)c2C1=O	-7.56%
Fc1ccc(CSc2ncnc3nc[nH]c23)cc1	10.1%
COc1ccc(C(=O)c2c(C)c3ccccc3n2CC(O)CNC(C)C)cc1.Cl (stereo not drawn)	-43.4%
O=C(N/C(=C/c1cccnc1)C(=O)N1CCCCCC1)c1ccccc1	12.3%
COc1ccc(OC)c(C2CC(c3c(-c4ccccc4)c4cc(Cl)ccc4[nH]c3=O)=NN2S(C)(=O)=O)c1 (stereo not drawn)	12.5%
CC(C)=CCCC(C)CN1CCC(N2CCC(C(=O)N3CCCC3)CC2)CC1 (stereo not drawn)	-74.8%
Cc1noc(C)c1S(=O)(=O)Nc1ccc(O)c2c(=O)cc(-c3ccccc3Cl)oc12	-13.2%
COc1cccc2c(=O)c3ccoc3n(C)c12	-0.434%
Cn1c(=O)c2c(nc(SCCCC#N)n2Cc2c(F)cccc2Cl)n(C)c1=O	-48.2%
COc1cc(/C=N/NC(=O)C(C)Nc2n[nH]c(=O)[nH]c2=O)ccc1O (stereo not drawn)	3.56%
CC(=O)NCN1CCN(CNC(C)=O)CC1	10.4%
Cc1ccc(-c2ccnc3[nH]n(-c4ccccc4)c(=O)c23)cc1	16.9%
CCOC(=O)c1cc2sccc2n1CC(=O)Nc1ccc(OC)cc1	-7.6%
CCc1cccc2c(C(=S)N3CCOCC3)c[nH]c12	-8.73%
CCNc1nc(NCC)n2c(SCC(=O)Nc3cccc(F)c3)nnc2n1	-1.95%
CCOc1ccc(NC(=O)CN2CCC(n3cnc4cc(F)ccc43)CC2)cc1	-74.3%
Nc1nc(N2C(=O)C3CC=CCC3C2=O)nn1-c1ccccc1 (stereo not drawn)	15.8%
CCOC(=O)N1CCN(Cc2nc3cc([N+](=O)[O-])ccc3n2CC)CC1	-51.9%
COC(=O)/C(=C\c1c[nH]c2ccccc12)NC(C)=O	4.95%
CC(C)c1nc(SCC(=O)Nc2ccc(N(C)C)cc2)c2ccccc2n1	20.3%
COc1ccc2nc(NC(=O)C3CCCN3S(=O)(=O)c3ccc(C)cc3)sc2c1 (stereo not drawn)	6.17%
COC(=O)CSc1nc2cc(Cl)ccc2c(=O)n1C1CCCC1	24.3%
O=C(NC(=S)Nc1ccc(Cl)c(C(=O)O)c1)c1cccc(COc2ccccc2)c1	6.56%

Compound	hERG current change (%, negative = inhibition) at 10uM
COCCOC(=O)c1sc(=S)n(CCOC)c1N	1.82%
O=C(CSc1cccc[n+]1[O-])NC1CCCCCCC1	16.2%
CCOC(=O)c1oc2ccccc2c1NC(=O)c1cccc(OC)c1OC	-18.8%
CC(C)Oc1ccc(S(=O)(=O)N2CCCCC2)cc1NC(=O)C1=COCCO1	-3.99%
O=C(N/N=C/c1cc(Br)c(Br)s1)c1ccncc1	8.49%
COCC1CCN(Cc2cn[nH]c2-c2cc3ccccc3o2)C1 (stereo not drawn)	-33.7%
Cc1onc(-c2ccccc2)c1C(=O)Nc1ccc2c(c1)OCCO2	6.94%
NC(=O)CN1C(=O)C(=O)N(Cc2cccc(Cl)c2)C1=O	7.06%
Cc1ccccc1C1NC(=S)NC2=C1C(=O)CC(C)(C)C2 (stereo not drawn)	18.5%
Cc1ccc(S(=O)(=O)N2c3ccc(S(N)(=O)=O)cc3CC2C)cc1 (stereo not drawn)	-4.92%
COc1cc2c(cc1OC)C(C)N(C(=O)c1sccc1C)CC2 (stereo not drawn)	8.54%
CN1C(=O)C(C)(C)c2cc(S(=O)(=O)NCc3ccc(Cl)cc3)ccc21	-25.9%
CCOc1ccccc1OCCOCCN1CC(C)OC(C)C1 (stereo not drawn)	-4.4%
Cc1ccc(NC(=O)c2c(-c3ccccc3Cl)noc2C)nc1	1.56%
CC(C)c1ccccc1N=C1SCCN1C1CCS(=O)(=O)C1 (stereo not drawn)	-5.71%
COc1ccc(-c2ccc3c(c2)S(=O)(=O)c2cccc(C(=O)O)c2C3=O)cc1OC	17.7%
Cc1ccc(Cl)cc1NC(=O)CCC(=O)NCc1ccco1	7.15%
Cc1c(C(=O)NCC(c2ccco2)N2CCCC2)oc2ccc(Cl)cc12 (stereo not drawn)	-42.1%
Nc1nonc1-c1nc2ccccc2n1CC(=O)O	-0.277%
COc1ccc(OC)c(NC(=O)C23CCC(C)(C(=O)O2)C3(C)C)c1 (stereo not drawn)	13.9%
Nc1nc(N)nc(-c2cccc(Cl)c2Cl)n1	15.7%
CC(C)=CCCC(C)N(C=O)C(C)CCC=C(C)C (stereo not drawn)	-1.01%
O=C(/C=C/C=C/c1ccccc1)CC1(O)C(=O)N(CCc2ccccc2)c2ccccc21 (stereo not drawn)	11.9%

Compound	hERG current change (%, negative = inhibition) at 10uM
O=C(Nc1ccc(F)cc1F)c1ccc2c(c1)[nH]c(=O)n2Cc1ccc(F)cc1	-4.11%
O=C(NC(=S)N1CCCCC1c1cccnc1)c1ccccc1 (stereo not drawn)	4.5%
Clc1ccc(-c2cn3cccnc3n2)cc1Cl	-1.9%
N#Cc1ccccc1NC(=O)CSc1n[nH]c(-c2ccco2)n1	14.8%
COc1cc(OC)nc(Oc2ccccc2C(=O)Oc2ccc(C)cc2)n1	-25.1%
O=C(CSc1ccccn1)N/N=C/c1cc([N+](=O)[O-])ccc1O	12.2%
COc1cc(C(=O)NC(C)CCc2ccccc2)cc(OC)c1OC (stereo not drawn)	6.27%
COc1ccc(Cl)cc1NC(=O)Cn1c(=O)oc2ccccc21	8.24%
Cc1ccc(S(=O)(=O)NC(=O)c2ccccc2)cc1C(C)C	2.83%
CN(C)C(=O)C[n+]1cccc(/C=N/O)c1	8.28%
CN1CCC(N(C)S(=O)(=O)c2ccc(NC(=O)c3cccc(C#N)c3)cc2)CC1	2.75%
Cc1ccccc1CN1CCSc2sccc2C1=O	-12.8%
COc1ccc(CC(=O)N2CCN=C2SCc2cccc([N+](=O)[O-])c2)cc1	-5.33%
COc1ccc(CN2CCNC(=O)C2CC(=O)NCCC2=CCCCC2)cc1OC (stereo not drawn)	7.31%
O=C(NCc1ccc2c(c1)CCO2)Nc1ccccc1	9.77%
Cc1ccccc1C(OCC(O)CN1CCC(C(N)=O)CC1)c1ccccc1 (stereo not drawn)	-59.3%
O=C(CCc1nnc(-c2ccc3c(c2)OCO3)o1)NCCc1ccccc1F	-12.9%
CCCN1CC=C2C(C#N)=C(N)C(C#N)(C#N)C(c3cc(OC)ccc3OC)C2C1 (stereo not drawn)	-19.8%
CCOC(=O)c1cc(-c2ccccc2)sc1NC(=O)C(C)Sc1nnc(N)s1 (stereo not drawn)	26.2%
COc1ccc(NC(=O)/C(C#N)=C\C=C\c2ccco2)cc1	4.89%
COc1ccc(-c2cn3cc(C(=O)NN)ccc3n2)cc1	15.4%

From publication PMC4336329 (PLoS ONE, 2015)
